According to PubChem BioAssay AID504332 (National Center for Advancing Translational Sciences (NCATS), 2011):
Where “and” joins values, the source holds several entries; their conditions need not be identical. Identical values can stand only once. Hit rate of the full screen: of about 350,000 compounds, about 31,000 (8.9%) were called active. Inconclusive means that the source gave no clear call. Such entries were picked first, then a sample of the others. The call rests on the fitted dose curve; in most records, active means well fitted inhibition curve with a large enough effect; inconclusive means small, poorly fitted or top-dose-only effect; inactive means no such curve, though single readings can be large or run the other way. Potencies of inconclusive entries are doubtful fits and often do not repeat. Some compounds were tested as several samples or in several runs, with calls that do not always agree.

biological target: Histone-lysine N-methyltransferase EHMT2 (Homo sapiens) (UniProt Q96KQ7); test: qHTS Assay for Inhibitors of Histone Lysine Methyltransferase G9a; conditions: G9a H3K9 monomethylation, AlphaScreen, 2 h; activity, negative = inhibition: at 59 µM (top of the series) unless noted; further: nearly all actives have a fitted effect of over 75% in size
Procedure, shortened: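 Methyltransferase reactions run at room temperature for 2 h (20 nM enzyme, 500 nM biotin-H3K9 peptide, 20 uM SAM) after a 15 min compound preincubation; product detected by AlphaScreen beads and anti-H3K9me1 antibody.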
On the % scale 0 is the no-effect control and ±100 the full control effect; potency means the concentration at half of the fitted maximal effect; tags describe the fitted curve by direction and shape.

Sequence of UniProt Q96KQ7 (Q96KQ7 whole entry, looked up): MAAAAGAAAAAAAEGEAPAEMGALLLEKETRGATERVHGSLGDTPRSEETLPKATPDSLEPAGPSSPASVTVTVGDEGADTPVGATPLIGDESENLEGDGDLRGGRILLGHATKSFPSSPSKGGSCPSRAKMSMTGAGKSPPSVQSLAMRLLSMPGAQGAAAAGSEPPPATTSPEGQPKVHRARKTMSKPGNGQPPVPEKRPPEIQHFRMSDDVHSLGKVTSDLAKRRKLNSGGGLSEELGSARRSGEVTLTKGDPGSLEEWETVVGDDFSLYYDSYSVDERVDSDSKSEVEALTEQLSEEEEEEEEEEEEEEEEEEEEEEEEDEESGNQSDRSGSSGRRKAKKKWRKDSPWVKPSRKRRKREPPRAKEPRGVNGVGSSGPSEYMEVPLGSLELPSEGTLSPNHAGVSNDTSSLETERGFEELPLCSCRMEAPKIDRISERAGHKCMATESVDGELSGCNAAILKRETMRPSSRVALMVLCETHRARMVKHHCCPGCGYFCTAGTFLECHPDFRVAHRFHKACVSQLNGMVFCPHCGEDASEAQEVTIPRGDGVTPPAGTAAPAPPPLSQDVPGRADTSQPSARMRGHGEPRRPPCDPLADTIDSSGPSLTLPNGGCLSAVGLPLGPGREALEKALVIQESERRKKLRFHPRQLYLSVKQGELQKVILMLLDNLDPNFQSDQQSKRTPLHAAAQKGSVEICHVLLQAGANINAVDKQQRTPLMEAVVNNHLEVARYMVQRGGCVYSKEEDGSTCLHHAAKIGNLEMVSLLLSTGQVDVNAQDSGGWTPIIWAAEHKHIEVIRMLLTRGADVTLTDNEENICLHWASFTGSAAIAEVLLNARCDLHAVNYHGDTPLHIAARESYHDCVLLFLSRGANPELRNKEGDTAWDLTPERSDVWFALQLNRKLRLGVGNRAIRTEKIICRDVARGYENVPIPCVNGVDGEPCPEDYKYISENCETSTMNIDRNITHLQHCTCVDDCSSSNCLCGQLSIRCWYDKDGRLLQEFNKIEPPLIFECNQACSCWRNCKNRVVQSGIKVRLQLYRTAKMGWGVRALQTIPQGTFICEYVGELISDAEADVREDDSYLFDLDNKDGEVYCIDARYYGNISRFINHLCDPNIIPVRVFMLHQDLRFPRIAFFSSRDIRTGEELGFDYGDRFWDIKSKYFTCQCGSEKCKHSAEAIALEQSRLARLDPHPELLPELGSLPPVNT

Structure (SMILES)	activity, negative = inhibition	Potency
Cc1ccccc1CC(=O)Nc1ccc2c(c1)CCC2	inactive: 2.53% [at 102 µM]	–
COc1cc(C(N)=O)cc(Cl)c1OC	–	inconclusive: 79.4 µM [inhibitor, single point]
CNCCCC12CCC(c3ccccc31)c1ccccc12	–	inactive and active: 70.8 µM
CC1(c2ccc3c(c2)OCO3)NC(=O)N(CC(=O)c2ccc[nH]2)C1=O (centres undefined)	–	inconclusive: 89.1 µM [inhibitor, partial curve, poor fit]
CCOC(=O)N1CCN(CC(=O)c2ccc3c(c2)CCN3C(C)=O)CC1	–	active: 31.6 µM
Cc1c(/C=N/NC(N)=O)c2ccccn2c1C(=O)c1ccc(F)cc1	–	inconclusive: 39.8 µM [inhibitor, single point]
O=C(O)c1cccc(NC(=O)c2cn(-c3ccccc3)nc2-c2ccncc2)c1	–	active: 31.6 µM
N#Cc1cc2c(nc1SC1CC(=O)N(c3ccccc3)C1=O)CCC2 (centres undefined)	inactive: -17.2%	–
CCOc1ccc(CNC(=O)C2CCN(S(=O)(=O)N3CCCCC3)CC2)cc1	inactive: 1.5%	–
Cc1cc(C)c2c(c1)-c1c(ssc1=S)C(C)(C)N2C(=O)CSc1nncn1C	–	active: 5.01 µM
CCn1c(=O)c(-[n+]2ccccc2)c(O)c2ccccc21	–	inconclusive: 28.2 µM [inhibitor, single point]
Cc1[nH]oc(=O)c1N=Nc1ccccc1	–	inconclusive: 28.2 µM [inhibitor, partial curve, poor fit]
Cn1c(O)c(N=NC(=O)c2ccccc2O)c2ccccc21	–	inconclusive: 39.8 µM [inhibitor, partial curve, poor fit]
NCCNc1cccc2ccccc12	–	inconclusive: 2.82 µM [inhibitor, partial curve, poor fit]
CCCc1nn2c(=O)cc(COC(=O)c3cccc(NC(=O)CCc4ccccc4)c3)nc2s1	inactive: 15.3%	–
Cc1cccc(OCc2nc(C#N)c(NCc3ccccc3Cl)o2)c1	–	inconclusive: 12.6 µM [inhibitor, partial curve]
CCOC(=O)C1CCN(C(=O)CSc2n[nH]c(-c3ccccc3)n2)CC1	inactive: -23.1%	–
Cc1ccc(S(=O)(=O)N(C)CC(=O)N2CCCC2)cc1	inactive: -31.9%	–
CCCCN1CCc2[nH]c(=S)[nH]c(=O)c2C1	–	active: 35.5 µM
Clc1ccc(-c2csc(=Nc3ccccc3)n2Cc2ccc3c(c2)OCO3)cc1	–	active: 12.6 µM
COc1ccc(NC(=O)COCc2cc(-c3ccco3)on2)cc1	inactive: -6.26%	–
N#Cc1c(NCCO)nc(NCc2ccccc2)c2c1CCN(Cc1ccccc1)C2	inconclusive: -51.7% [inhibitor]	–
COc1ccc(C(C#N)N2N=C(C)CC2c2ccccc2)cc1OC (centres undefined)	–	inconclusive: 25.1 µM [inhibitor, single point]

Structure (SMILES)	activity, negative = inhibition	Potency
CC(CC1C(C#N)=C(N)SC(N)=C1C#N)c1ccccc1 (centres undefined)	–	active: 10 µM
COc1ccc(N(C(=O)CNC(=O)c2ccco2)C(C(=O)NCC2CCCO2)c2ccccc2)cc1Cl (centres undefined)	–	inconclusive: 28.2 µM [inhibitor, single point]
Cc1ccc(NC(=S)NCc2ccc(S(N)(=O)=O)cc2)cc1Cl	inactive: -13.8% [at 102 µM]	–
C=CCn1c(-c2cccs2)nc2ccccc21	inconclusive: -65.6% [inhibitor]	–
CN(C)C(=O)c1ccc(NC(=O)COC(=O)c2cc3c(s2)CCCCC3)cc1	–	active: 3.55 µM
COc1cc(NC(=O)CN2c3cccc4cccc(c34)S2(=O)=O)cc(OC)c1OC	–	inconclusive: 25.1 µM [inhibitor, partial curve, poor fit]
CCCCC(CC)CNC(=O)CCCc1nnc2n(CCC)c(=O)c3sccc3n12 (centres undefined)	inactive: 2.05%	–
COc1ccc(-c2ccc(CCC(=O)O)n2CC2CCCO2)cc1 (centres undefined)	–	inconclusive: 50.1 µM [inhibitor, single point]
Cc1cc(Cl)ccc1Oc1nc(-c2ccc(F)cc2)ccc1C#N	–	inconclusive: 3.98 µM [inhibitor, partial curve, poor fit]
Cc1nnc(NC(=O)CS(=O)(=O)Cc2ccccc2)s1	–	inconclusive: 89.1 µM [inhibitor, single point]
Cc1onc(C(=O)NCc2ccc(F)cc2)c1[N+](=O)[O-]	–	inconclusive: 50.1 µM [inhibitor, partial curve]
CCOC(=O)C1=C(O)c2ccccc2C(=O)/C1=C\c1ccc(C)cc1	–	active: 2.51 µM
O=C(O)c1ccc(CNCc2ccc(F)cc2)cc1	–	inconclusive: 70.8 µM [inhibitor, partial curve, poor fit]
CC(C)c1ccc(S(=O)(=O)N2CCN(C(=S)NCc3ccco3)CC2)cc1	–	inconclusive: 20 µM [inhibitor, partial curve, poor fit]
CCn1c(COc2ccc(C)cc2)nnc1SCC(=O)Nc1cc(OC)ccc1OC	–	inconclusive: 89.1 µM [inhibitor, single point]
O=[N+]([O-])c1cccc(-c2nnc(-c3ccc4c(c3)OCO4)o2)c1	–	inconclusive: 39.8 µM [inhibitor, single point]
O=C(CSc1nnc(SCc2ccc(Cl)cc2)s1)N/N=C/c1c[nH]c2ccccc12	–	inconclusive: 20 µM [inhibitor, single point]
COc1ccc(N2CCN(C(=O)COC(=O)c3cccc(S(=O)(=O)Nc4ccccc4OC)c3)CC2)cc1	–	active: 15.8 µM
CC(C)NC(=O)CCCN1C(=O)c2ccccc2Sc2ncccc21	–	inconclusive: 0.631 µM [inhibitor, partial curve, poor fit]
CCN(CC(=O)NCc1ccc(Cl)cc1)C(=O)c1oc2ccccc2c1C	–	inconclusive: 50.1 µM [inhibitor, partial curve]
Clc1ccc(Nc2ccc(NCc3ccccc3)nn2)cc1	–	inconclusive: 31.6 µM [inhibitor, single point]
CCn1cc([N+](=O)[O-])c(C(=O)N2N=C3/C(=C/c4cccs4)CCCC3C2c2cccs2)n1 (centres undefined)	–	inconclusive: 39.8 µM [inhibitor, partial curve, poor fit]
CCC(C)(C)NC(=S)Nc1ccccc1C	inactive: 9.59% [at 102 µM]	–

Structure (SMILES)	activity, negative = inhibition	Potency
O=C(Nc1cccc(F)c1)c1coc(=O)c(Br)c1	–	inconclusive: 79.4 µM [inhibitor, partial curve, poor fit]
O=C(CNS(=O)(=O)c1ccc(F)cc1)Nc1ccccc1	–	inconclusive: 89.1 µM [inhibitor, single point]
CCN(CC)S(=O)(=O)c1ccc(OC)c(NC(=O)OCc2ccccc2)c1	inactive: 3.6% [at 102 µM]	–
O=C(O)Cn1cnc2c(oc3ccccc32)c1=O	–	inconclusive: 44.7 µM [inhibitor, partial curve, poor fit]
Cc1cc(OC(=O)c2ccc(C(C)(C)C)cc2)c([N+](=O)[O-])c(=O)[nH]1	–	inconclusive: 100 µM [inhibitor, single point]
CCCCN(CCCNC(=O)CN1N=C(c2ccccc2)CCC1=O)c1ccccc1	–	inconclusive: 28.2 µM [inhibitor, single point]
Cc1sc(NC(=O)CN2C(=O)NC3(CCCC3)C2=O)nc1-c1ccc(F)cc1	–	inconclusive: 44.7 µM [inhibitor, partial curve]
COc1ccc(C(NC(C)=O)c2c(O)ccc3ccccc23)cc1OC (centres undefined)	–	inconclusive: 39.8 µM [inhibitor, single point]
Cc1cc(C)c2c(=O)[nH]n(C3CCOC(C)(C)C3)c2n1 (centres undefined)	–	inconclusive: 89.1 µM [inhibitor, single point]
Cc1ccc(Cc2nc3ccccc3nc2SCC(=O)NCCC(C)C)cc1	inactive: 7.64%	–
CC1CN(C2=Nc3cccc4cccc2c34)CC(C)O1 (centres undefined)	–	inconclusive: 56.2 µM [inhibitor, partial curve, poor fit]
CC(=O)NC(CC(=O)OCC(=O)NCCc1ccccc1)c1ccccc1 (centres undefined)	–	inconclusive: 50.1 µM [inhibitor, partial curve, poor fit]
O=C(COc1cccc2ccccc12)N/N=C/c1ccc(Sc2nc3ccccc3s2)o1	–	inconclusive: 11.2 µM [inhibitor, partial curve, poor fit]
CCOc1ccc(NC(=O)Cn2cc(C(=O)c3ccc(CC)cc3)c(=O)c3cc(C)ccc32)cc1	–	inconclusive: 28.2 µM [inhibitor, partial curve, poor fit]
O=C(Nc1ccc(NC(=O)c2ccco2)c(Cl)c1)c1ccc2c(c1)OCCO2	–	inconclusive: 79.4 µM [inhibitor, single point]
CCn1nc([N+](=O)[O-])c(C(C#N)c2nc3cc(C(F)(F)F)ccc3s2)c(Cl)c1=O (centres undefined)	–	active: 11.2 µM
CCc1cccc2c(C(=O)COC(=O)c3cnc(C)cn3)c[nH]c12	–	inconclusive: 0.891 µM [inhibitor, single point]
Cc1c(C(=O)c2no[n+]([O-])c2C(=O)c2cnn(C)c2C)cnn1C	–	inconclusive: 39.8 µM [inhibitor, single point]
COc1ccc(OCCN2CCN(S(=O)(=O)c3ccccc3C(F)(F)F)CC2)cc1	inactive: -12.2% [at 12.7 µM]	–
CCN(C(=O)COC(=O)c1ccc(OC)c(S(=O)(=O)N(C)Cc2ccccc2)c1)C1CCS(=O)(=O)C1 (centres undefined)	–	inconclusive: 70.8 µM [inhibitor, single point]
O=C(N/C(=C/c1cccc([N+](=O)[O-])c1)C(=O)N1CCCCCC1)c1cccs1	–	inconclusive: 89.1 µM [inhibitor, single point]
CSc1ccc(CNCCCN(C)C)cc1	–	inconclusive: 39.8 µM [inhibitor, single point]
COc1ccccc1/C=C/C=C(\C#N)C(=O)NC(C)c1ccccc1 (centres undefined)	inactive: -7.66% [at 102 µM]	–
